pIC50: −log10 of the molar value. Like-named read-outs stand apart in the source and are kept apart here.
What was measured:
[1] = tested on: HAP1 MTAP-deleted cell line; assay: SDMA in-cell western assay, HAP1 MTAP-deleted; settings: for pIC50 / IC90: Homo sapiens; for Hap1 MTAP intact/deleted ratio: IC50 ratio between HAP1 MTAP-intact and HAP1 MTAP-deleted cell line, SDMA in-cell western
MTAP-deleted cell line = assay: viability assay for the MTAP-deleted cell line; format: cell-based; settings: Homo sapiens, HAP1, viability assay
[2] = tested on: HAP1 MTAP-intact cell line; assay: SDMA in-cell western assay, HAP1 MTAP-intact; settings: Homo sapiens
[3] = HAP1, read-out: Hap1 MTAP deleted IC50, SDMA in-cell western, HAP1 MTAP-deleted cell line
[4] = HAP1, read-out: Hap1 MTAP deleted IC90, SDMA in-cell western, HAP1 MTAP-deleted cell line
[5] = HAP1, read-out: Hap1 MTAP intact IC50, SDMA in-cell western, HAP1 MTAP-intact cell line

| Structure (SMILES) | pIC50 [1, 3] | IC90 [1, 4] [nM] | pIC50 [2, 5] | Hap1 MTAP intact/deleted ratio [1] | pIC50 (MTAP-deleted cell line) | pIC50 ([1]; HAP1, read-out: Hap1 MTAP deleted IC50) | IC90 ([1]; HAP1, read-out: Hap1 MTAP deleted IC90) [nM] | pIC50 ([2]; HAP1, read-out: Hap1 MTAP intact IC50) |
| --- | --- | --- | --- | --- | --- | --- | --- | --- |
| Cc1cnc2cc(NC(=O)C(=O)N3C[C@@H](C)CC[C@@H]3c3ccc4sc(C5CCN(C)CC5)nc4c3)ccn12 [Compound 74, N-(3-methylimidazo[1,2-a]pyridin-7-yl)-2-oxo-2-[(2R,5S)-5-methyl-2-[2-(1-methyl-4-piperidyl)-1,3-benzothiazol-5-yl]-1-piperidyl]acetamide] | > 8.30 | < 75 | < 7.30 | A (“A” indicates an IC50 ratio greater than or equal to 30 fold) | > 7.00 | – | – | – |
| C[C@H]1CC[C@H](c2ccc3sc(C4(CN(C)C)COC4)nc3c2)N(C(=O)C(=O)Nc2cncc3c(N)nccc23)C1 [Compound 82, N-(8-amino-2,7-naphthyridin-4-yl)-2-((2R,5S)-2-(2-(3-((dimethylamino)methyl)oxetan-3-yl)benzo[d]thiazol-5-yl)-5-methylpiperidin-1-yl)-2-oxoacetamide] | 7.30 to 8.30 | > 125 | < 7.30 | A (“A” indicates an IC50 ratio greater than or equal to 30 fold) | 6.00 to 7.00 | – | – | – |
| C[C@H]1CC[C@H](c2ccc3nn(C4CCN(C)CC4)cc3c2)N(C(=O)C(=O)Nc2cncc3cn[nH]c23)C1 [Compound 84, 2-oxo-N-(1H-pyrazolo[4,3-c]pyridin-7-yl)-2-[(2R,5S)-5-methyl-2-[2-(1-methyl-4-piperidyl)indazol-5-yl]-1-piperidyl]acetamide] | > 8.30 | < 75 | < 7.30 | B (“B” indicates an IC50 ratio greater than or equal to 15 fold but lower than 30 fold) | > 7.00 | – | – | – |
| C[C@H]1CC[C@H](c2ccc3cn(C4CCN(C)CC4)nc3c2)N(C(=O)C(=O)Nc2ccn3ccnc3c2)C1 [Compound 88, N-imidazo[1,2-a]pyridin-7-yl-2-oxo-2-[(2R,5S)-5-methyl-2-[2-(1-methyl-4-piperidyl)indazol-6-yl]-1-piperidyl]acetamide] | > 8.30 | < 75 | 7.30 to 8.30 | B (“B” indicates an IC50 ratio greater than or equal to 15 fold but lower than 30 fold) | > 7.00 | – | – | – |
| C[C@H]1CC[C@H](c2ccc3sc(C4(CN(C)C)COC4)nc3c2)N(C(=O)C(=O)Nc2ccn3ccnc3c2)C1 [Compound 96, 2-((2R,5S)-2-(2-(3-((dimethylamino)methyl)oxetan-3-yl)benzo[d]thiazol-5-yl)-5-methylpiperidin-1-yl)-N-(imidazo[1,2-a]pyridin-7-yl)-2-oxoacetamide] | 7.30 to 8.30 | – | < 7.30 | A (“A” indicates an IC50 ratio greater than or equal to 30 fold) | 6.00 to 7.00 | – | – | – |
| CC1=C(c2nc3cc([C@H]4CC[C@H](C)CN4C(=O)C(=O)Nc4ccn5ccnc5c4)ccc3s2)CCN(C)C1 [Compound 125, 2-((2R,5S)-2-(2-(1,5-dimethyl-1,2,3,6-tetrahydropyridin-4-yl)benzo[d]thiazol-5-yl)-5-methylpiperidin-1-yl)-N-(imidazo[1,2-a]pyridin-7-yl)-2-oxoacetamide] | > 8.30 | < 75 | < 7.30 | A (“A” indicates an IC50 ratio greater than or equal to 30 fold) | > 7.00 | – | – | – |
| CN(C)c1cccc([C@H]2CCCCN2C(=O)C(=O)Nc2cnc(N)c3cn[nH]c23)c1 [Compound 129] | > 8.30 | < 75 | < 7.30 | B (“B” indicates an IC50 ratio greater than or equal to 15 fold but lower than 30 fold) | > 7.00 | – | – | – |
| C[C@H]1CC[C@H](c2ccc3sc(C4(C)CCN(C)CC4)nc3c2)N(C(=O)C(=O)Nc2cncc3cn[nH]c23)C1 [Compound 132, 2-((2R,5S)-2-(2-(1,4-dimethylpiperidin-4-yl)benzo[d]thiazol-5-yl)-5-methylpiperidin-1-yl)-2-oxo-N-(1H-pyrazolo[4,3-c]pyridin-7-yl)acetamide] | – | – | – | B (“B” indicates an IC50 ratio greater than or equal to 15 fold but lower than 30 fold) | > 7.00 | > 8.30 | < 75 | 7.30 to 8.30 |

More lines, main results first:

| pIC50 [1, 3] | IC90 [1, 4] [nM] | pIC50 [2, 5] | Structure (SMILES) | Hap1 MTAP intact/deleted ratio [1] | pIC50 (MTAP-deleted cell line) | pIC50 ([1]; HAP1, read-out: Hap1 MTAP deleted IC50) | IC90 ([1]; HAP1, read-out: Hap1 MTAP deleted IC90) [nM] | pIC50 ([2]; HAP1, read-out: Hap1 MTAP intact IC50) |
| --- | --- | --- | --- | --- | --- | --- | --- | --- |
| 7.30 to 8.30 | 75 to 125 | < 7.30 | C[C@H]1CC[C@H](c2ccc3sc(C4CCN(C)CC4)nc3c2)N(C(=O)C(=O)Nc2cnc3[nH]cnc3c2)C1 [Compound 69, N-(3H-imidazo[4,5-b]pyridin-6-yl)-2-((2R,5S)-5-methyl-2-(2-(1-methylpiperidin-4-yl)benzo[d]thiazol-5-yl)piperidin-1-yl)-2-oxoacetamide] | A (“A” indicates an IC50 ratio greater than or equal to 30 fold) | > 7.00 | – | – | – |
| > 8.30 | < 75 | < 7.30 | C[C@H]1CC[C@H](c2ccc3sc(CCCN(C)C)nc3c2)N(C(=O)C(=O)Nc2cncc3cn[nH]c23)C1 [Compound 72, 2-((2R,5S)-2-(2-(3-(dimethylamino)propyl)benzo[d]thiazol-5-yl)-5-methylpiperidin-1-yl)-2-oxo-N-(1H-pyrazolo[4,3-c]pyridin-7-yl)acetamide] | A (“A” indicates an IC50 ratio greater than or equal to 30 fold) | > 7.00 | – | – | – |
| > 8.30 | < 75 | 7.30 to 8.30 | C[C@H]1CC[C@H](c2cccc(Cl)c2)N(C(=O)C(=O)Nc2cnc(N)c3cn[nH]c23)C1 [Compound 80, N-(4-amino-1H-pyrazolo[4,3-c]pyridin-7-yl)-2-((2R,5S)-2-(3-chlorophenyl)-5-methylpiperidin-1-yl)-2-oxoacetamide] | B (“B” indicates an IC50 ratio greater than or equal to 15 fold but lower than 30 fold) | > 7.00 | – | – | – |
| > 8.30 | < 75 | 7.30 to 8.30 | C[C@H]1CC[C@H](c2ccc3sc(C4CCN(C)CC4(C)C)nc3c2)N(C(=O)C(=O)Nc2cncc3cn[nH]c23)C1 (stereo partly drawn) [Compound 81, 2-((5S)-5-methyl-2-(2-(1,3,3-trimethylpiperidin-4-yl)benzo[d]thiazol-5-yl)piperidin-1-yl)-2-oxo-N-(1H-pyrazolo[4,3-c]pyridin-7-yl)acetamide] | B (“B” indicates an IC50 ratio greater than or equal to 15 fold but lower than 30 fold) | > 7.00 | – | – | – |
| – | < 75 | 7.30 to 8.30 | C[C@H]1CC[C@H](c2ccc3sc(C4CC(C)(C)N(C)C(C)(C)C4)nc3c2)N(C(=O)C(=O)Nc2cncc3cn[nH]c23)C1 [Compound 85, 2-((2R,5S)-5-methyl-2-(2-(1,2,2,6,6-pentamethylpiperidin-4-yl)benzo[d]thiazol-5-yl)piperidin-1-yl)-2-oxo-N-(1H-pyrazolo[4,3-c]pyridin-7-yl)acetamide] | – | > 7.00 | – | – | – |
| > 8.30 | < 75 | 7.30 to 8.30 | C[C@H]1CC[C@H](c2ccc(F)cc2)N(C(=O)C(=O)Nc2cnc(N)c3cn[nH]c23)C1 [Compound 101, N-(4-amino-1H-pyrazolo[4,3-c]pyridin-7-yl)-2-((2R,5S)-2-(4-fluorophenyl)-5-methylpiperidin-1-yl)-2-oxoacetamide] | B (“B” indicates an IC50 ratio greater than or equal to 15 fold but lower than 30 fold) | > 7.00 | – | – | – |
| > 8.30 | < 75 | 7.30 to 8.30 | C[C@H]1CC[C@H](c2ccc3sc(C4CN(C)C4)nc3c2)N(C(=O)C(=O)Nc2cnc(N)c3cn[nH]c23)C1 [Compound 107, N-(4-amino-1H-pyrazolo[4,3-c]pyridin-7-yl)-2-((2R,5S)-5-methyl-2-(2-(1-methylazetidin-3-yl)benzo[d]thiazol-5-yl)piperidin-1-yl)-2-oxoacetamide] | C (“C” indicates an IC50 ratio of less than 15 fold) | > 7.00 | – | – | – |
| > 8.30 | < 75 | < 7.30 | C[C@H]1CC[C@H](c2ccc3sc(C4(CN(C)C)COC4)nc3c2)N(C(=O)C(=O)Nc2cncc3cn[nH]c23)C1 [Compound 112, 2-((2R,5S)-2-(2-(3-((dimethylamino)methyl)oxetan-3-yl)benzo[d]thiazol-5-yl)-5-methylpiperidin-1-yl)-2-oxo-N-(1H-pyrazolo[4,3-c]pyridin-7-yl)acetamide] | B (“B” indicates an IC50 ratio greater than or equal to 15 fold but lower than 30 fold) | > 7.00 | – | – | – |
| > 8.30 | < 75 | 7.30 to 8.30 | C[C@H]1CC[C@H](c2ccc3cn([C@H]4CCN(C)C4)nc3c2)N(C(=O)C(=O)Nc2cncc3cn[nH]c23)C1 [Compound 117, 2-((2R,5S)-5-methyl-2-(2-((S)-1-methylpyrrolidin-3-yl)-2H-indazol-6-yl)piperidin-1-yl)-2-oxo-N-(1H-pyrazolo[4,3-c]pyridin-7-yl)acetamide] | A (“A” indicates an IC50 ratio greater than or equal to 30 fold) | > 7.00 | – | – | – |
| > 8.30 | < 75 | < 7.30 | C[C@H]1CC[C@H](c2ccc3scnc3c2)N(C(=O)C(=O)Nc2cnc(N)c3cc[nH]c23)C1 [Compound 123] | C (“C” indicates an IC50 ratio of less than 15 fold) | 6.00 to 7.00 | – | – | – |
| > 8.30 | < 75 | 7.30 to 8.30 | C[C@H]1CC[C@H](c2ccc3sc(C4CCN(C5CC5)CC4)nc3c2)N(C(=O)C(=O)Nc2cncc3cn[nH]c23)C1 [Compound 131, 2-((2R,5S)-2-(2-(1-cyclopropylpiperidin-4-yl)benzo[d]thiazol-5-yl)-5-methylpiperidin-1-yl)-2-oxo-N-(1H-pyrazolo[4,3-c]pyridin-7-yl)acetamide] | C (“C” indicates an IC50 ratio of less than 15 fold) | > 7.00 | – | – | – |

— US20250163048A1 (Tango Therapeutics, Inc., priority 2022, published 2025)
